In this test the test system is MYC. Kind of test: cells. The following applies: Homo sapiens, MV4-11, 4 h, read-out: Myc IC50 (μM).

Usually IC50 stands for the concentration that gives 50% inhibition.

As for `CC(=O)N1CCc2c(c(N3CCCc4cc(-c5cnn(C)c5)c(OC(F)(F)F)cc43)nn2C2CCOCC2)C1` [Example 247, 1-[3-[6-(1-methylpyrazol-4-yl)-7-(trifluoromethoxy)-3,4-dihydro-2H-quinolin-1-yl]-1-tetrahydropyran-4-yl-6,7-dihydro-4H-pyrazolo[4,3-c]pyridin-5-yl]ethanone], the half-inhibitory concentration (IC50) turned out to be 0.018 µM.

In the case of `CC(=O)N1CCc2c(c(Nc3ccc(-c4cn[nH]c4)cc3F)nn2C2CCOC2)C1` (stereo not shown) [Example 248, 3-[7-(difluoromethyl)-4-methyl-6-(1-methylpyrazol-4-yl)-3,4-dihydro-2H-quinolin-1-yl]-N-methyl-1-tetrahydropyran-4-yl-6,7-dihydro-4H-pyrazolo[4,3-c]pyridine-5-carboxamide], the 50% inhibitory concentration (IC50) is 1.09 µM.

On to `CNC(=O)N1CCc2c(c(N3CCC(C)c4cc(-c5cnn(C)c5)c(C(F)F)cc43)nn2C2CCOCC2)C1` (stereo not shown) [Example 248, 3-[7-(difluoromethyl)-4-methyl-6-(1-methylpyrazol-4-yl)-3,4-dihydro-2H-quinolin-1-yl]-N-methyl-1-tetrahydropyran-4-yl-6,7-dihydro-4H-pyrazolo[4,3-c]pyridine-5-carboxamide], for which the IC50 was 0.017 µM.

With `CNC(=O)N1CCc2c(c(N3CCCc4cc(-c5ccnc(OC)c5)c(C(F)F)cc43)nn2C2CCOCC2)C1` [Example 249, 3-[7-(difluoromethyl)-6-(2-methoxy-4-pyridyl)-3,4-dihydro-2H-quinolin-1-yl]-N-methyl-1-tetrahydropyran-4-yl-6,7-dihydro-4H-pyrazolo[4,3-c]pyridine-5-carboxamide], the IC50 was 0.011 µM.

Regarding `CNC(=O)N1CCc2c(c(N3C[C@H](C)Cc4cc(-c5cnn(C)c5)c(C(F)F)cc43)nn2C2CCOCC2)C1` [Example 250, (R)-3-[7-(difluoromethyl)-3-methyl-6-(1-methylpyrazol-4-yl)-3,4-dihydro-2H-quinolin-1-yl]-N-methyl-1-tetrahydropyran-4-yl-6,7-dihydro-4H-pyrazolo[4,3-c]pyridine-5-carboxamide], the half-inhibitory concentration (IC50) worked out at 0.006 µM.

Turning to `CNC(=O)N1CCc2c(c(N3C[C@@H](C)Cc4cc(-c5cnn(C)c5)c(C(F)F)cc43)nn2C2CCOCC2)C1` [Example 251, (S)-3-[7-(difluoromethyl)-3-methyl-6-(1-methylpyrazol-4-yl)-3,4-dihydro-2H-quinolin-1-yl]-N-methyl-1-tetrahydropyran-4-yl-6,7-dihydro-4H-pyrazolo[4,3-c]pyridine-5-carboxamide], the IC50 turned out to be 0.006 µM.

Take `CNC(=O)N1CCc2c(c(N3CCCc4cc(-c5ccc(NC(C)=O)nc5)c(C(F)F)cc43)nn2C2CCOCC2)C1` [Example 252, 3-[6-(6-acetamido-3-pyridyl)-7-(difluoromethyl)-3,4-dihydro-2H-quinolin-1-yl]-N-methyl-1-tetrahydropyran-4-yl-6,7-dihydro-4H-pyrazolo[4,3-c]pyridine-5-carboxamide]: the IC50 stood at 0.005 µM.

On to `CNC(=O)N1CCc2c(c(N3CCc4cc(-c5cnn(C)c5C)c(C(F)F)cc43)nn2C2CCOCC2)C1` [Example 253, 3-[6-(difluoromethyl)-5-(1,5-dimethylpyrazol-4-yl)indolin-1-yl]-N-methyl-1-tetrahydropyran-4-yl-6,7-dihydro-4H-pyrazolo[4,3-c]pyridine-5-carboxamide], for which the IC50 worked out at 0.028 µM.

`CNC(=O)N1CCc2c(c(N3CCCc4cc(-c5cnn(C)c5)c(C(F)(F)F)cc43)nn2C2CCOCC2)C1` [Example 254, N-methyl-3-[6-(1-methylpyrazol-4-yl)-7-(trifluoromethyl)-3,4-dihydro-2H-quinolin-1-yl]-1-tetrahydropyran-4-yl-6,7-dihydro-4H-pyrazolo[4,3-c]pyridine-5-carboxamide]: the IC50 was found to be 0.004 µM.

Take `CNC(=O)N1CCc2c(c(N3CCCc4cc(-c5cnn(C)c5)c(C)cc43)nn2C2CCOCC2)C1` [Example 255, N-methyl-3-[7-methyl-6-(1-methylpyrazol-4-yl)-3,4-dihydro-2H-quinolin-1-yl]-1-tetrahydropyran-4-yl-6,7-dihydro-4H-pyrazolo[4,3-c]pyridine-5-carboxamide]: the IC50 stood at 0.047 µM.

As for `CNC(=O)N1CCc2c(c(N3CCCc4cc(-c5cnn(C)c5)c(OC(F)(F)F)cc43)nn2C2CCOCC2)C1` [Example 256, N-methyl-3-[6-(1-methylpyrazol-4-yl)-7-(trifluoromethoxy)-3,4-dihydro-2H-quinolin-1-yl]-1-tetrahydropyran-4-yl-6,7-dihydro-4H-pyrazolo[4,3-c]pyridine-5-carboxamide], the IC50 was found to be 0.011 µM.

In the case of `Cn1cc(-c2cc(F)c(Nc3nn(C4CCOCC4)c4c3CN(C(N)=O)CC4)cc2C(F)F)cn1` [Example 256, N-methyl-3-[6-(1-methylpyrazol-4-yl)-7-(trifluoromethoxy)-3,4-dihydro-2H-quinolin-1-yl]-1-tetrahydropyran-4-yl-6,7-dihydro-4H-pyrazolo[4,3-c]pyridine-5-carboxamide], the half-inhibitory concentration (IC50) came out at 0.07 µM.

Take `CNC(=O)N1CCc2c(c(N3CCCc4cc(-c5cnn(C)c5)c(Cl)cc43)nn2C2CCOCC2)C1` [Example 257, 3-[7-chloro-6-(1-methylpyrazol-4-yl)-3,4-dihydro-2H-quinolin-1-yl]-N-methyl-1-tetrahydropyran-4-yl-6,7-dihydro-4H-pyrazolo[4,3-c]pyridine-5-carboxamide]: the IC50 came to 0.008 µM.

`C=Cc1cc2c(cc1-c1cnn(C)c1)CCCN2c1nn(C2CCOCC2)c2c1CN(C(=O)NC)CC2` [Example 259, N-methyl-3-[6-(1-methylpyrazol-4-yl)-7-vinyl-3,4-dihydro-2H-quinolin-1-yl]-1-tetrahydropyran-4-yl-6,7-dihydro-4H-pyrazolo[4,3-c]pyridine-5-carboxamide]: the IC50 amounted to 0.019 µM.

As to `CCc1cc2c(cc1-c1cnn(C)c1)CCCN2c1nn(C2CCOCC2)c2c1CN(C(=O)NC)CC2` [Example 260, 3-[7-ethyl-6-(1-methylpyrazol-4-yl)-3,4-dihydro-2H-quinolin-1-yl]-N-methyl-1-tetrahydropyran-4-yl-6,7-dihydro-4H-pyrazolo[4,3-c]pyridine-5-carboxamide], the IC50 worked out at 0.039 µM.

For `CNC(=O)N1CCc2c(c(N3CCCc4cc(-c5cnn(C)c5)c(S(C)(=O)=O)cc43)nn2C2CCOCC2)C1` [Example 261, N-methyl-3-[6-(1-methylpyrazol-4-yl)-7-methylsulfonyl-3,4-dihydro-2H-quinolin-1-yl]-1-tetrahydropyran-4-yl-6,7-dihydro-4H-pyrazolo[4,3-c]pyridine-5-carboxamide], the IC50 was 0.029 µM.

In the case of `CNC(=O)N1CCc2c(c(N3CCN(C)c4cc(-c5cnn(C)c5)c(C#N)cc43)nn2C2CCOCC2)C1` [Example 262, 3-[7-cyano-4-methyl-6-(1-methylpyrazol-4-yl)-2,3-dihydroquinoxalin-1-yl]-N-methyl-1-tetrahydropyran-4-yl-6,7-dihydro-4H-pyrazolo[4,3-c]pyridine-5-carboxamide], the concentration for half-maximal inhibition (IC50) turned out to be 0.005 µM.

Turning to `CC(=O)N1CCc2c(c(N3CCN(C)c4cc(-c5cnn(C)c5)c(C#N)cc43)nn2C2CCOCC2)C1` [Example 263, 4-(5-acetyl-1-tetrahydropyran-4-yl-6,7-dihydro-4H-pyrazolo[4,3-c]pyridin-3-yl)-1-methyl-7-(1-methylpyrazol-4-yl)-2,3-dihydroquinoxaline-6-carbonitrile], the IC50 turned out to be 0.015 µM.

As for `CNC(=O)N1CCc2c(c(N3C[C@H](C)N(C)c4cc(-c5cnn(C)c5)c(C#N)cc43)nn2C2CCOCC2)C1` [Example 267, (S)-3-[7-cyano-3,4-dimethyl-6-(1-methylpyrazol-4-yl)-2,3-dihydroquinoxalin-1-yl]-N-methyl-1-tetrahydropyran-4-yl-6,7-dihydro-4H-pyrazolo[4,3-c]pyridine-5-carboxamide], the IC50 stood at 0.082 µM.

With `CNC(=O)N1CCc2c(c(N3CCN(C)c4cc(-c5cnn(C)c5)c(C(F)(F)F)cc43)nn2C2CCOCC2)C1` [Example 268, N-methyl-3-[4-methyl-6-(1-methylpyrazol-4-yl)-7-(trifluoromethyl)-2,3-dihydroquinoxalin-1-yl]-1-tetrahydropyran-4-yl-6,7-dihydro-4H-pyrazolo[4,3-c]pyridine-5-carboxamide], the concentration for half-maximal inhibition (IC50) was 0.007 µM.

For the compound `CNC(=O)N1CCc2c(c(Nc3cc(F)c(-c4cnn(C)c4)cc3F)nn2C2CCOCC2)C1` [Example 268, N-methyl-3-[4-methyl-6-(1-methylpyrazol-4-yl)-7-(trifluoromethyl)-2,3-dihydroquinoxalin-1-yl]-1-tetrahydropyran-4-yl-6,7-dihydro-4H-pyrazolo[4,3-c]pyridine-5-carboxamide], the half-inhibitory concentration (IC50) is over 10 µM.

For the compound `CC(=O)N1CCc2c(c(N3CCN(C)c4cc(-c5cnn(C)c5)c(C(F)(F)F)cc43)nn2C2CCOCC2)C1` [Example 269, 1-[3-[4-methyl-6-(1-methylpyrazol-4-yl)-7-(trifluoromethyl)-2,3-dihydroquinoxalin-1-yl]-1-tetrahydropyran-4-yl-6,7-dihydro-4H-pyrazolo[4,3-c]pyridin-5-yl]ethanone], the half-maximal inhibitory concentration (IC50) is 0.007 µM.

Consider `CNC(=O)c1ccc(-c2cc3c(cc2C(F)(F)F)N(c2nn(C4CCOCC4)c4c2CN(C(C)=O)CC4)CCN3C)cn1` [Example 270, 5-[1-(5-acetyl-1-tetrahydropyran-4-yl-6,7-dihydro-4H-pyrazolo[4,3-c]pyridin-3-yl)-4-methyl-7-(trifluoromethyl)-2,3-dihydroquinoxalin-6-yl]-N-methyl-pyridine-2-carboxamide], for which the half-maximal inhibitory concentration (IC50) was determined as 0.019 µM.

Take `CNC(=O)N1CCc2c(c(N3C[C@@H](C)N(C)c4cc(-c5cnn(C)c5)c(C(F)(F)F)cc43)nn2C2CCOCC2)C1` [Example 272, (R)-3-[3,4-dimethyl-6-(1-methylpyrazol-4-yl)-7-(trifluoromethyl)-2,3-dihydroquinoxalin-1-yl]-N-methyl-1-tetrahydropyran-4-yl-6,7-dihydro-4H-pyrazolo[4,3-c]pyridine-5-carboxamide]: the IC50 was found to be 0.006 µM.

Take `CNC(=O)c1ccc(-c2cc(F)c(Nc3nn(C4CCOCC4)c4c3CN(C(=O)NC)CC4)cc2C(F)F)cn1` [Example 272, (R)-3-[3,4-dimethyl-6-(1-methylpyrazol-4-yl)-7-(trifluoromethyl)-2,3-dihydroquinoxalin-1-yl]-N-methyl-1-tetrahydropyran-4-yl-6,7-dihydro-4H-pyrazolo[4,3-c]pyridine-5-carboxamide]: the concentration for half-maximal inhibition (IC50) was found to be 0.03 µM.

For the origin of these results see US9763922B2 (priority 2014, dated 2017).
